The other results are listed elsewhere or left out.
target: T1, OsWOX13 (Oryza sativa, UniProt Q5QMM3 1-267); assay: protein-binding microarray (RPBM); PBS, 2% BSA, 51.3 ng/ul salmon testes DNA, 50 uM zinc acetate, 200 nM TF, 25 C, 1 h; high values mean tight binding; conditions: protein: recombinant; tags: N-terminal polyhistidine and DsRed monomer fusion (pET32a); label: CyDye5-dUTP incorporated in the synthesized complementary strand; 3' TTTTT single-stranded linker to array surface; dsDNA, one strand shown
T1 sequence: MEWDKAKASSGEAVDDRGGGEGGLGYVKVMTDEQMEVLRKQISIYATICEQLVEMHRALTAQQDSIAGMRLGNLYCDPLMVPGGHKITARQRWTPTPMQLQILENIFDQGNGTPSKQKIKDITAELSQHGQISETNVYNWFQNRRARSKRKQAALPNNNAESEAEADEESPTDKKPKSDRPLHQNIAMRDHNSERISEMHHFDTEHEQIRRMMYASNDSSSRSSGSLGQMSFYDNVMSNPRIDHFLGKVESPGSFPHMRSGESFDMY
Outline: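 Polyhistidine-tagged DsRed fusions of transcription factors, joined at the N-terminus, were expressed in E. coli BL21-CodonPlus and isolated on Ni–NTA. They were incubated at 200 nM for 1 h at 25 °C on a custom Agilent array, double-stranded and BSA-blocked, in PBS with 2% BSA, salmon testes DNA and 50 µM zinc acetate. The binding signal is per-feature fluorescence intensity (arbitrary units) read on an Axon 4000B scanner after washing.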

Question: “GATAATGGATTAAGAATCCGGCCTCTACACCACAAGGAGACGGAGTCACCTAGTGCAG” was tested. Which binding signal did it give?
Answer: The binding signal was 4850 fluorescence intensity (a.u.).

Question: “GTAAATTATTTGCTTCTGAATTTCATATAGTATTTAAATACGGAGTCACCTAGTGCAG” was tested. Which binding signal did it give?
Answer: The binding signal was 3860 fluorescence intensity (a.u.).

Question: “ATCTTAATTGAAACAAACACAGCTTTAGTATATGCATGTCCGGAGTCACCTAGTGCAG” was tested. Which binding signal did it give?
Answer: The binding signal was 58900 fluorescence intensity (a.u.).

Question: How did the binding signal turn out when “TGATGACAGAGAGAAGATTTATGCTTACCTCATTGCAGCTCGGAGTCACCTAGTGCAG” was run?
Answer: The binding signal was 20000 fluorescence intensity (a.u.).

Question: “GTTGATTTCATTAGCGAGTTTACCCACAGCACAATAAACTCGGAGTCACCTAGTGCAG” was tested. Which binding signal did it give?
Answer: The binding signal was 7020 fluorescence intensity (a.u.).

Question: “TGATGGTATGATTTTAATTTTGTGCGAATTCGAATGACATCGGAGTCACCTAGTGCAG” was tested. Which binding signal did it give?
Answer: The binding signal was 4290 fluorescence intensity (a.u.).

Question: For “TCAAATTAATATTTTACTCCAGACTAGAAATGAGGCAAATCGGAGTCACCTAGTGCAG”, which binding signal is on record?
Answer: The binding signal was 6740 fluorescence intensity (a.u.).

Question: With “CGGCGGCGGAGGAGGAGGAGGAGGAGGGCGCGGGGCGGCGCGGAGTCACCTAGTGCAG” as the sequence, how does the binding signal read?
Answer: Its binding signal is 4190 fluorescence intensity (a.u.).

Question: For “ATAATTATTTTCTTTCATAACCCTTTTATCCTCAGTGGCTCGGAGTCACCTAGTGCAG”, which binding signal is on record?
Answer: Its binding signal is 6420 fluorescence intensity (a.u.).

Question: How did the binding signal turn out when “TGCCATTGTCAATCTCTCTGCTCTCCTCATGTAACTGATGCGGAGTCACCTAGTGCAG” was run?
Answer: The binding signal was 3180 fluorescence intensity (a.u.).

Question: With “TGTTAATTTTCAGGATGTTACAGTACTGGATTGACGTCAACGGAGTCACCTAGTGCAG” as the sequence, how does the binding signal read?
Answer: Its binding signal is 14200 fluorescence intensity (a.u.).

Question: How did the binding signal turn out when “CTGGCTGTTAATTGTATAGAGACAGTTTTAAAAGCCTAAACGGAGTCACCTAGTGCAG” was run?
Answer: Its binding signal is 8390 fluorescence intensity (a.u.).

Question: How did the binding signal turn out when “CTTACTAAATTTGTACTAACAATCATCTCAACCGTTTGATCGGAGTCACCTAGTGCAG” was run?
Answer: Its binding signal is 12400 fluorescence intensity (a.u.).

Question: With “ACAATCAACTGATTTTCTTTCTTTTACAATCAACTGATTTCGGAGTCACCTAGTGCAG” as the sequence, how does the binding signal read?
Answer: The binding signal was 9230 fluorescence intensity (a.u.).

Question: For “AGAGAGGGGATTGATGATTCTTTCCAGATTCAGAGCCTAGCGGAGTCACCTAGTGCAG”, which binding signal is on record?
Answer: The binding signal was 10100 fluorescence intensity (a.u.).

Question: Which binding signal does the source give for “GACATGACAGAGGATTTTGGAGTCACAACACAACGGCGGTCGGAGTCACCTAGTGCAG” here?
Answer: The binding signal was 4300 fluorescence intensity (a.u.).

Question: How did the binding signal turn out when “TATATAGATTAATAATATATTAAGGACGTAACTGATGCATCGGAGTCACCTAGTGCAG” was run?
Answer: The binding signal was 7830 fluorescence intensity (a.u.).

Question: Which binding signal does the source give for “ATAACAAAATCAACGCCAAAATTGAGTTTTAAACTTTAATCGGAGTCACCTAGTGCAG” here?
Answer: Its binding signal is 3310 fluorescence intensity (a.u.).

Question: “CCGAGCAATCAAGCGACAAGATCGAGAAGCCACAAACCCCCGGAGTCACCTAGTGCAG” was tested. Which binding signal did it give?
Answer: Its binding signal is 5480 fluorescence intensity (a.u.).

Question: Which binding signal does the source give for “GTTAATGGCATATAATAGATTTTCTCTATTACTATTCATCCGGAGTCACCTAGTGCAG” here?
Answer: Its binding signal is 27000 fluorescence intensity (a.u.).

Question: “GTTAATTTACTATTCTGTTTTATTCTGGTTGTTGATAATACGGAGTCACCTAGTGCAG” was tested. Which binding signal did it give?
Answer: The binding signal was 17200 fluorescence intensity (a.u.).

Question: With “ATCATTAATTCATTTATTTAATATACCCTACATCTAAATCCGGAGTCACCTAGTGCAG” as the sequence, how does the binding signal read?
Answer: The binding signal was 3780 fluorescence intensity (a.u.).

Question: How did the binding signal turn out when “CCAAACTTCTAATTTTAGCGTGAACTACAGAACTAGACACCGGAGTCACCTAGTGCAG” was run?
Answer: The binding signal was 3600 fluorescence intensity (a.u.).

Question: For “CAAATAATTATTATACTTTGTCATGTCATATAAACTATATCGGAGTCACCTAGTGCAG”, which binding signal is on record?
Answer: The binding signal was 17900 fluorescence intensity (a.u.).

Question: “AAGTAATTTTAGAGATGCATTTCCTTCGTACCTTTCATCACGGAGTCACCTAGTGCAG” was tested. Which binding signal did it give?
Answer: Its binding signal is 3690 fluorescence intensity (a.u.).

Question: Which binding signal does the source give for “ACGTGATGTGATTGTGTTATAGCTTCTTTAATTAAAACAACGGAGTCACCTAGTGCAG” here?
Answer: Its binding signal is 15700 fluorescence intensity (a.u.).

Question: How did the binding signal turn out when “TTTATGATTATTTAATCAATGTCAAACTTGTTCTGTGCATCGGAGTCACCTAGTGCAG” was run?
Answer: The binding signal was 49800 fluorescence intensity (a.u.).

Question: Which binding signal does the source give for “TGAGGAGCAATTAATGAGTTTGATGGACAGAGATAATAGCCGGAGTCACCTAGTGCAG” here?
Answer: The binding signal was 9490 fluorescence intensity (a.u.).

Question: “AATAATTTCAAAATTTTATGAATAAGACGAGTGGTCAAACCGGAGTCACCTAGTGCAG” was tested. Which binding signal did it give?
Answer: The binding signal was 4550 fluorescence intensity (a.u.).

Question: Which binding signal does the source give for “GATAGATAGATAGATAGATGTAGGAGTAAATATCATACAACGGAGTCACCTAGTGCAG” here?
Answer: Its binding signal is 17700 fluorescence intensity (a.u.).

Question: Which binding signal does the source give for “CTCCTTATGTCAACCTAATTTATTGCTAGTACAAATTGCTCGGAGTCACCTAGTGCAG” here?
Answer: Its binding signal is 5130 fluorescence intensity (a.u.).

Question: With “GCTTACAATTAATGATTACCTTTTCATAAAGATTATTATTCGGAGTCACCTAGTGCAG” as the sequence, how does the binding signal read?
Answer: The binding signal was 12400 fluorescence intensity (a.u.).

Question: “GTTGGTTCGATTTAATTGCAGTTACCACTTTGAGAACACTCGGAGTCACCTAGTGCAG” was tested. Which binding signal did it give?
Answer: The binding signal was 5570 fluorescence intensity (a.u.).

Question: Which binding signal does the source give for “AAGATAGATCAATATGTAATGTATCAATCCACAAACATGCCGGAGTCACCTAGTGCAG” here?
Answer: The binding signal was 6630 fluorescence intensity (a.u.).

Question: How did the binding signal turn out when “GGTTATATTTATCTTCATGATTGTCGCGCTGCAGTAGAAACGGAGTCACCTAGTGCAG” was run?
Answer: The binding signal was 10200 fluorescence intensity (a.u.).

Question: Which binding signal does the source give for “TGGTGATTTTGTGTCTGTATCATCAAAATTTGGGTATCTTCGGAGTCACCTAGTGCAG” here?
Answer: Its binding signal is 10400 fluorescence intensity (a.u.).

Question: “CAAAATCATTGGAGGGAAATGGCCAAGCTGTGCGGTCAGCCGGAGTCACCTAGTGCAG” was tested. Which binding signal did it give?
Answer: The binding signal was 3220 fluorescence intensity (a.u.).

Question: With “CATTCTAATCATACAAATTTCATCTAGGAAACTATCCCATCGGAGTCACCTAGTGCAG” as the sequence, how does the binding signal read?
Answer: Its binding signal is 7070 fluorescence intensity (a.u.).

Question: Which binding signal does the source give for “GCGATGACACAATCAAACAAGTTTGAGAACCTGAACGGTCCGGAGTCACCTAGTGCAG” here?
Answer: The binding signal was 7080 fluorescence intensity (a.u.).

Question: How did the binding signal turn out when “CAAGATTTATGATGATAGCCTTACTGGAGAGGAGCATCATCGGAGTCACCTAGTGCAG” was run?
Answer: Its binding signal is 14400 fluorescence intensity (a.u.).

Question: “TCTTATAAAACAAATCATTGATCTAATAGTGCTAACAACACGGAGTCACCTAGTGCAG” was tested. Which binding signal did it give?
Answer: Its binding signal is 4820 fluorescence intensity (a.u.).

Question: How did the binding signal turn out when “TTTTGTGATAAATTGTGTAATATACATGTAGTTTTGTGAACGGAGTCACCTAGTGCAG” was run?
Answer: The binding signal was 4530 fluorescence intensity (a.u.).

Source: paper PMC7819943, “Rice protein-binding microarrays: a tool to detect cis-acting elements near promoter regions in rice”
